Assay in all cases: universal protein binding microarray (PBM)
Common to all, as to conditions: transcription factors of Arabidopsis thaliana; high values mean tight binding; most listed sequences are background and not binding sites; double strand, one strand shown

The target in one assay is T1, GST-ANAC092(1-176) (UniProt Q9FKA0).
T1 sequence: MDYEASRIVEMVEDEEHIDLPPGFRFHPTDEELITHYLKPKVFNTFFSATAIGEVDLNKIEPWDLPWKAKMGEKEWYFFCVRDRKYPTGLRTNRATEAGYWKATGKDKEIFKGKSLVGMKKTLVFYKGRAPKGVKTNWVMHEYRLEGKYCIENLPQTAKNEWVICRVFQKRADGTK

The next assay addresses GST-NTL6(1-168) (UniProt Q9SCK6).
For another assay, the target named is T2, GST-ANAC019 NAC domain (UniProt Q9C932).
T2 sequence: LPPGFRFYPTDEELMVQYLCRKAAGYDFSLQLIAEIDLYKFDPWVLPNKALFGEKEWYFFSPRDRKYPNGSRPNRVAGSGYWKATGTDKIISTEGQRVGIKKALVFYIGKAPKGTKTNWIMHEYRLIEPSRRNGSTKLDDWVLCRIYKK

The target in a further assay is T3, GST-ANAC055(1-171) (UniProt Q9LDY8).
T3 sequence: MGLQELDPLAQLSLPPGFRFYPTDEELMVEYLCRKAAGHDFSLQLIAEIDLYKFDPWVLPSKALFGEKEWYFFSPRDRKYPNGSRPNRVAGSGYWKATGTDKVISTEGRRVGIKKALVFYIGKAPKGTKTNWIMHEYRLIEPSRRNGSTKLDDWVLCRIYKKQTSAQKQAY

The next assay concerns the target T4, GST-ATAF1 NAC domain (UniProt Q39013).
T4 sequence: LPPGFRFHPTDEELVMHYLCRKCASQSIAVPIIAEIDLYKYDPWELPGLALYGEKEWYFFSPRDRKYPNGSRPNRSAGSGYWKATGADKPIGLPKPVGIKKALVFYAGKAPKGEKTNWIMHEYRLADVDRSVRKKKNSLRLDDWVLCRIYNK

Assay [1] concerns the target T5, GST-ANAC092(1-285) full length (UniProt Q9FKA0).
T5 sequence: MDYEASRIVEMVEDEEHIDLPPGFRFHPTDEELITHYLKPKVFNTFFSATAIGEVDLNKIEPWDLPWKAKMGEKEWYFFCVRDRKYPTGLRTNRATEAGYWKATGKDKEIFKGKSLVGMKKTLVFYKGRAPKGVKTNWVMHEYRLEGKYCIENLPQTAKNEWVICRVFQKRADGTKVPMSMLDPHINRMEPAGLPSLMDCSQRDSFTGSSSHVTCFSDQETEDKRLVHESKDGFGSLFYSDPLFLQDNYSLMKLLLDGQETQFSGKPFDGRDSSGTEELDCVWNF

The target of another assay is T6, GST-NAP(1-166) (UniProt O49255).
T6 sequence: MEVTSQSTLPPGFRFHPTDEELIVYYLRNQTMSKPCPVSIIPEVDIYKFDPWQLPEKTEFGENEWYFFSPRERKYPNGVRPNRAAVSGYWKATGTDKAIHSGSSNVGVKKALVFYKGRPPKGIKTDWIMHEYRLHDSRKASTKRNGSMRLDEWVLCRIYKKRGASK

The target of the next assay is T7, GST-NST2(1-184) (UniProt Q9M274).
T7 sequence: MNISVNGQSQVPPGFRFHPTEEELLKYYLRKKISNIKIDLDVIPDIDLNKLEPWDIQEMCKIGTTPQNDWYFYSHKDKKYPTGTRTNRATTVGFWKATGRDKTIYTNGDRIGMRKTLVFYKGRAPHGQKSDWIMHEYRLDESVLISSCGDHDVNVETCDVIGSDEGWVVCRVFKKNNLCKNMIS

A further assay deals with T8, GST-NTL8 NAC domain (UniProt Q9XIN7).
T8 sequence: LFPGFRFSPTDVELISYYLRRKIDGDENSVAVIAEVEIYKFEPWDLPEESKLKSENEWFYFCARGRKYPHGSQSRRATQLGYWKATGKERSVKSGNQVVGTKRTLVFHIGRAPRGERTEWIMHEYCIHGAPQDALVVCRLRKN

For the next assay, the target named is T9, GST-SND1(1-203) (UniProt Q9LPI7).
T9 sequence: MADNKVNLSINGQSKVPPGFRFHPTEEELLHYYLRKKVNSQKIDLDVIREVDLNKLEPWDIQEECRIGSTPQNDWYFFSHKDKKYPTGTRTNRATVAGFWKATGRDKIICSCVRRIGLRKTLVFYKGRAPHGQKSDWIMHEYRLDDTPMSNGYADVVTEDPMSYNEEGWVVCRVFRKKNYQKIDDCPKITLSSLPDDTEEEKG

A further assay deals with T10, GST-VND3 NAC domain (UniProt Q9FH59).
T10 sequence: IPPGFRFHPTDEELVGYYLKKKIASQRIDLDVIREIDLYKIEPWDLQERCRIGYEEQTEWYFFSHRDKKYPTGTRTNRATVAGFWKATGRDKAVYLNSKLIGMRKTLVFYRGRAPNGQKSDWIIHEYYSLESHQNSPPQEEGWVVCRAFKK

Another assay deals with T11, GST-VND7 NAC domain (UniProt Q9C8W9).
T11 sequence: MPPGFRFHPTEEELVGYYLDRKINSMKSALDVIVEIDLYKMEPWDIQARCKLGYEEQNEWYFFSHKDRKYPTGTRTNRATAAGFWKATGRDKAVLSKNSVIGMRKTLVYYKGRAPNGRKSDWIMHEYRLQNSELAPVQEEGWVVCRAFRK

The target in assay [2] is T12, GST-VOZ2 (Arabidopsis thaliana) (UniProt Q9SLB9).
T12 sequence: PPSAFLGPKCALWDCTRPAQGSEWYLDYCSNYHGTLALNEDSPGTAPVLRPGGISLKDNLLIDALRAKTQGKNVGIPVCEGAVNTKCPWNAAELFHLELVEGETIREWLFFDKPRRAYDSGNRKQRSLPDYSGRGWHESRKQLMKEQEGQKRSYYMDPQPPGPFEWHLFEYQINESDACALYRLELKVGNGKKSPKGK

In the next assay the target is GST-WRKY1(266-371) (UniProt Q9SI37).

The list shows a part of the results, in another mix than the full data. For some of these results: At the low end of the ranking, values are background and their order means little. The list shows a part of the results. For some of these results: The exact form of the protein is not confirmed.

GST-WRKY1(266-371), sequence (Q9SI37 266-371, chain 1 of 2): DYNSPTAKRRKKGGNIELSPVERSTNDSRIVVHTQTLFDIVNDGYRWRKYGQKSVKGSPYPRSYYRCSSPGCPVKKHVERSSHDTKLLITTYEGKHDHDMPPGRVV
UniProt Q9SCK6, sequence (Q9SCK6 1-168): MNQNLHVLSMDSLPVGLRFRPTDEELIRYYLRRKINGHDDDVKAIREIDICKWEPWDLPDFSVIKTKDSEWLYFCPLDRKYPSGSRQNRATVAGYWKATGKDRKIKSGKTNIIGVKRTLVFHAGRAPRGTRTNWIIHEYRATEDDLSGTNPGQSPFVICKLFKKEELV

For the sequence GCGGGTCA, the binding signal with GST-ANAC092(1-176) was -0.0558 E-score; with GST-NTL6(1-168) it was -0.16 E-score; with GST-ANAC019 NAC domain it was -0.00954 E-score; in the assay with GST-ANAC055(1-171), -0.177 E-score; in the assay with GST-ATAF1 NAC domain, -0.181 E-score; in [1], -0.0549 E-score. In addition, the binding signal in the assay with GST-NAP(1-166) is -0.176 E-score; in the assay with GST-NST2(1-184) it was -0.0922 E-score; in the assay with GST-NTL8 NAC domain it was -0.107 E-score; with GST-SND1(1-203) it was 0.0205 E-score; with GST-VND3 NAC domain, -0.179 E-score; with GST-VND7 NAC domain it was -0.096 E-score. The binding signal in [2] came to 0.102 E-score; with GST-WRKY1(266-371) it was 0.421 E-score.

On to CCCGGTCA, for which the binding signal in the assay with GST-ANAC092(1-176) is -0.0942 E-score; with GST-NTL6(1-168), -0.184 E-score; with GST-ANAC019 NAC domain, -0.0176 E-score; with GST-ANAC055(1-171) it was -0.303 E-score; in the assay with GST-ATAF1 NAC domain it was -0.189 E-score; in assay [1], -0.15 E-score. Also, the binding signal is -0.169 E-score in the assay with GST-NAP(1-166); -0.188 E-score with GST-NST2(1-184); -0.0758 E-score with GST-NTL8 NAC domain; -0.212 E-score in the assay with GST-SND1(1-203); -0.248 E-score with GST-VND3 NAC domain; -0.155 E-score with GST-VND7 NAC domain. In addition, the binding signal was determined as 0.0157 E-score in assay [2] and 0.445 E-score with GST-WRKY1(266-371).

On to GCGAGTCA, for which the binding signal is -0.0133 E-score with GST-ANAC092(1-176); -0.0496 E-score with GST-NTL6(1-168); 0.0345 E-score in the assay with GST-ANAC019 NAC domain; -0.0343 E-score with GST-ANAC055(1-171); 0.0411 E-score in the assay with GST-ATAF1 NAC domain; -0.085 E-score in assay [1]. Moreover, the binding signal in the assay with GST-NAP(1-166) is -0.093 E-score; with GST-NST2(1-184) it was -0.0468 E-score; with GST-NTL8 NAC domain, 0.034 E-score; in the assay with GST-SND1(1-203), -0.0337 E-score; in the assay with GST-VND3 NAC domain, -0.0278 E-score; with GST-VND7 NAC domain, -0.026 E-score. In addition, the binding signal in assay [2] is -0.103 E-score; with GST-WRKY1(266-371), 0.414 E-score.

AGTGGTCA: the binding signal with GST-ANAC092(1-176) was -0.092 E-score; in the assay with GST-NTL6(1-168), -0.0526 E-score; with GST-ANAC019 NAC domain it was -0.129 E-score; with GST-ANAC055(1-171) it was 0.0341 E-score; with GST-ATAF1 NAC domain it was -0.0146 E-score; in assay [1], -0.135 E-score. Further, the binding signal was -0.088 E-score in the assay with GST-NAP(1-166); -0.0548 E-score in the assay with GST-NST2(1-184); -0.0788 E-score in the assay with GST-NTL8 NAC domain; -0.114 E-score with GST-SND1(1-203); -0.0316 E-score with GST-VND3 NAC domain; -0.114 E-score in the assay with GST-VND7 NAC domain. For the same sequence, the binding signal in assay [2] was -0.0243 E-score; in the assay with GST-WRKY1(266-371) it was 0.436 E-score.

On to GCTGACTA, for which the binding signal with GST-ANAC092(1-176) is -0.0502 E-score; in the assay with GST-NTL6(1-168) it was -0.186 E-score; in the assay with GST-ANAC019 NAC domain, 0.00334 E-score; with GST-ANAC055(1-171) it was -0.141 E-score; in the assay with GST-ATAF1 NAC domain it was 0.0088 E-score; in assay [1], -0.0256 E-score. Also, the binding signal with GST-NAP(1-166) is -0.111 E-score; with GST-NST2(1-184) it was -0.163 E-score; with GST-NTL8 NAC domain, 0.00179 E-score; in the assay with GST-SND1(1-203), -0.00275 E-score; with GST-VND3 NAC domain, -0.0961 E-score; with GST-VND7 NAC domain it was -0.0899 E-score. The binding signal in assay [2] was -0.0876 E-score; in the assay with GST-WRKY1(266-371), 0.417 E-score.
